Test results from paper PMC4918322.
No constants are given. Whether binding was seen depends on the method and setting. Binding seen in cells or lysates may run through a third protein. Some entries that bind do so weakly or less than the wild type.

Molecular target: T1, endogenous RSF1 (human (endogenous; cell line not stated, all lines of the paper are human)) (UniProt Q96T23)
T1 sequence: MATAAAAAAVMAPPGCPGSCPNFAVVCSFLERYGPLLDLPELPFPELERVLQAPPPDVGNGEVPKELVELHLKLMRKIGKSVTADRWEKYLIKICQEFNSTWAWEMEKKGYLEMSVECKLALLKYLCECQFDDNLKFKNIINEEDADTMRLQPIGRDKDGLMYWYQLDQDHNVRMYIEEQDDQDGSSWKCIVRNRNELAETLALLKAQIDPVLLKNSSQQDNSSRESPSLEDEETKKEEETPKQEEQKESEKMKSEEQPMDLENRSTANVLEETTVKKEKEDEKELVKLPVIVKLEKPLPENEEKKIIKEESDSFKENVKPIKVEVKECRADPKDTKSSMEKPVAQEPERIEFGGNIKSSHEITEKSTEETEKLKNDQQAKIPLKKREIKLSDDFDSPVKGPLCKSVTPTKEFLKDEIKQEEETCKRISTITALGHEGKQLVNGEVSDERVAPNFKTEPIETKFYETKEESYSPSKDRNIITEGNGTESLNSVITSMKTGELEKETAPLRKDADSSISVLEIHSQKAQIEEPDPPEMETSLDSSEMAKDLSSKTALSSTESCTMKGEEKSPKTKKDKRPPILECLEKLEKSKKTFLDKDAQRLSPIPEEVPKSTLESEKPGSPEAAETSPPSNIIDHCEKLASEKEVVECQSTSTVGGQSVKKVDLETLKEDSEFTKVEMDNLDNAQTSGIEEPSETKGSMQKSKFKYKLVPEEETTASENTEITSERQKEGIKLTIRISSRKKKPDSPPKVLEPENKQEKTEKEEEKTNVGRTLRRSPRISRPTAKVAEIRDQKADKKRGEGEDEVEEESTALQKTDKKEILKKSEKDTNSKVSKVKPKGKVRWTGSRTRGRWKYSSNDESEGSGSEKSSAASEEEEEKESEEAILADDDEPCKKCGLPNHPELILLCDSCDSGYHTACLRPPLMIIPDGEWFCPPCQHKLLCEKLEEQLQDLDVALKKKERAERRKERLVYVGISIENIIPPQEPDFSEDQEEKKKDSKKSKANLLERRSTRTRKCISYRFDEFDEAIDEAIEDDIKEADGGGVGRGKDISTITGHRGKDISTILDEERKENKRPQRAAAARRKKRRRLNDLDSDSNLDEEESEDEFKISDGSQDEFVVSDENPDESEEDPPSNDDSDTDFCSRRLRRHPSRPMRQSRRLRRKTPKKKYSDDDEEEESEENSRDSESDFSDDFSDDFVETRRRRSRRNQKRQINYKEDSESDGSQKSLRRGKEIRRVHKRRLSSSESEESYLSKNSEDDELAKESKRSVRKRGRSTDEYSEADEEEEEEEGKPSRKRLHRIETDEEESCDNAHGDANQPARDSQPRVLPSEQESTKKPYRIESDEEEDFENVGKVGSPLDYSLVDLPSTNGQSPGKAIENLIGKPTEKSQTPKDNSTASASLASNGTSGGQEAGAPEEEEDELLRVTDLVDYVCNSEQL
Experiment: co-IP; endogenous proteins, mitotic cells; lysis in E1A buffer (50 mM Tris-HCl pH 7.4, 150 mM NaCl, 0.1% NP-40), antibody 12 h at 4 °C, protein A-Sepharose

binding: binds
Substance: endogenous PLK1 (from UniProt P53350 1-603)
